In all, about 110,000 compounds were measured (“z-score”: median about -0.1, highest 2% from about 2 on). Some of the results follow. Active and inactive are the calls of the source.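 The calls were made as follows: active = z-score in the third read window above 3 or below -3; inactive = the rest.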

71 compounds from PubChem BioAssay AID488969 (Vanderbilt High Throughput Screening Facility, 2010) can be followed below.

In this assay the target is Metabotropic glutamate receptor 8 (Rattus norvegicus) (UniProt P70579). Put plainly: rat mGluR8 modulators via GIRK flux, primary screen, cell-based, thallium flux, HTS (AID 488969). The note with it: HEK293 rat mGluR8, GIRK (G protein-gated inwardly rectifying potassium channel) thallium flux, FluoZin2; at 10 µM; stronger effect = higher value; submaximal glutamate (EC20) added with thallium.
Chain of UniProt P70579 (P70579 whole entry, looked up): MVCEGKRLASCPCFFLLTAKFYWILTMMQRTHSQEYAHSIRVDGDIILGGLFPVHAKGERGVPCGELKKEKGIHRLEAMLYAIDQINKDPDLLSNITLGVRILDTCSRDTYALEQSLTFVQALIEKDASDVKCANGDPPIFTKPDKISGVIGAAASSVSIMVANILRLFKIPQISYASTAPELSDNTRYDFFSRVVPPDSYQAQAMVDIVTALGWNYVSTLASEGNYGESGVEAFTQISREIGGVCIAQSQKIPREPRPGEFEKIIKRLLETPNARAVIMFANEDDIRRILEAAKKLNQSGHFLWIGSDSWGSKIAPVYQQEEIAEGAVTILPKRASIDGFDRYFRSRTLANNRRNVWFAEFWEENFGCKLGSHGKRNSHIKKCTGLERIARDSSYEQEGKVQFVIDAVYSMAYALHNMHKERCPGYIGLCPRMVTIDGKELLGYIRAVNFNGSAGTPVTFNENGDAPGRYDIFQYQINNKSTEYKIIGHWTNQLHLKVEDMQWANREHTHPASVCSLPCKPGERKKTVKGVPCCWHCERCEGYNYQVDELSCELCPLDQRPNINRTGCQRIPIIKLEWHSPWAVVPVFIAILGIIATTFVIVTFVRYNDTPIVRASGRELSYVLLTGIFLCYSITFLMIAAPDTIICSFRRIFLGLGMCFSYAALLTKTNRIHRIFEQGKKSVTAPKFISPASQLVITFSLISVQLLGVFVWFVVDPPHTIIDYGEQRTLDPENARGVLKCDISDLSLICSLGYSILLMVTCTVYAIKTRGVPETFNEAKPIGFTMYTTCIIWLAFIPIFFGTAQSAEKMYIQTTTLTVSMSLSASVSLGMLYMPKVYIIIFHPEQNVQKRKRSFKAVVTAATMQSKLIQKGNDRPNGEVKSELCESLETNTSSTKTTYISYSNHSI
As for `CC(C)[C@H](NC(=O)c1ccc(C(C)(C)C)cc1)C(=O)Nc1nnc(C2CC2)s1`, the z-score is -0.921. The same measure for `Cc1ccc(NC(=O)CSc2nnnn2C)cc1S(=O)(=O)N(C)C`: -0.194.

`Cc1cc(C)n(-c2nncn2/N=C/c2ccccc2F)n1` had a z-score of -0.0531. On to `CCN1CCN(C(=O)CSc2cc(=O)n(CC)c3ccccc23)CC1`, for which the z-score is -0.0483.

Compound `O=c1nc2ccccc2c2n1CC(CN1CCN(Cc3ccccc3)CC1)N2` (stereo unspecified) showed a z-score of -0.482.

As to `CCOC(=O)c1cnc(SCCc2ccccc2)nc1N`, the z-score is -0.386. The figure for `Cc1cnc(NC(=O)CSc2nnc(COc3c(C)cccc3C)o2)s1` is -0.236. The figure for `CN(CC(=O)OCC(=O)NC(=O)c1cccn1C)S(=O)(=O)c1ccc(Cl)cc1` is -0.459; for `CCCCN(CC)c1nc(N)c2c(N)nc(OCC)cc2c1C#N` it is -0.0208. On to `CSc1ccccc1NC(=S)Nc1cccc(C(F)(F)F)c1`, for which the z-score stood at 0.183. The figure for `COc1ccc(Nc2ncccc2C(=O)NCc2ccccc2)cc1` is 0.0521; for `COc1ccc(CNc2nc(NCc3ccc(OC)c(OC)c3)n(C(=O)c3cccs3)n2)cc1OC` it is -1.01. The figure for `COc1cccc(C(=O)Nc2nnc(C3CCCO3)s2)c1` (stereo unspecified) is -0.0731; for `COc1ccc(S(=O)(=O)NCCSC(C)(C)C)c(Cl)c1Cl` it is -0.144.

For `COC(=O)CSc1nc(N)nc(C)c1Br`, the z-score amounted to 0.0483. The same measure for `Cc1ccc(CN(c2ccc(C(=O)NCc3ccccn3)cc2)S(C)(=O)=O)cc1`: -0.144; for `CCCCCCCC[n+]1cccc(C(=O)N(CC)CC)c1`: -0.179; for `C=CCC(NCc1ccco1)c1ccc(OC)cc1` (stereo unspecified): 0.032.

Compound `CCn1ncc(/C=N/NC(=O)c2ccc3c(c2)OCO3)c1C` came in with a z-score of -0.0337. On to `Cc1ccc(C2C(C(=O)O)c3ccccc3C(=O)N2C)o1` (stereo unspecified), for which the z-score was -0.116. The figure for `C=CCNC(=O)c1cc(=O)c2ccccc2o1` is 0.446; for `CCOC(=O)c1sc(NC(=O)c2cc(S(=O)(=O)N3CCOCC3)ccc2C)nc1C` it is -0.215. The same measure for `O=C(/C=C/NNC(=O)c1ccc(Br)cc1)c1ccccc1`: 0.387. The same measure for `Cc1onc(-c2c(Cl)cccc2Cl)c1C(=O)NC(=S)Nc1sc2c(c1C(N)=O)CCC(C)C2` (stereo unspecified): -0.371. `CCOC(=O)c1c(-c2ccccc2)csc1NC(=O)CSc1nc(N)cc(N)n1` gave a z-score of -0.344. The same measure for `CCCn1c(Nc2ccccc2C)nc2ccccc21`: 0.583; for `Cc1ccc(-c2csc3ncnc(Sc4nnc(CN5CCCCCC5=O)o4)c23)cc1`: -1.8. As for `Cn1ccc(C(=O)N2CCCc3ccccc32)n1`, the z-score is -0.0997. Compound `O=C(NC1(C(F)(F)F)NC(=O)N(c2ccc(F)cc2)C1=O)c1cccs1` (stereo unspecified) came in with a z-score of -0.139. The figure for `O=C(NC(=S)N1CCCCC1)C12CC3CC(CC(C3)C1)C2` is active: 5.6.

In the case of `Cc1ccc(C(=O)OCC(=O)N2CC(=O)Nc3ccccc32)s1`, the z-score is 0.331.

In turn, `O=C(O)c1cnc(-c2ccccc2)nc1Sc1cccc(Cl)c1` came in with a z-score of -1.1. The figure for `CC(C)(C)n1ncc2c(=O)n(Cc3c(F)cccc3Cl)cnc21` is 0.171. The same measure for `COCc1cc(C)nc(SCC(=O)Nc2cccc(C)c2)c1C#N`: -0.237.

Turning to `CSc1ccc(-c2nnn(Cc3ccccn3)n2)cc1`, the z-score is -0.621.

For `O=C(NC(=S)Nc1ccc(S(=O)(=O)Nc2nccs2)cc1)c1ccc(F)cc1`, the z-score was 0.00534. The same measure for `Nc1nc(-c2ccc(Br)s2)c(Br)s1`: 0.515. The figure for `O=C(NC(=S)NCc1ccc(-c2nc3ccccc3s2)cc1)c1ccco1` is 2.52; for `C/C=C/C(=O)Nc1nnc(C(C)C)s1` it is 0.0319. Consider `Cc1ccc(-n2c(SCC(N)=O)nnc2-c2ccc(S(=O)(=O)N3CCCCC3)cc2)c(C)c1`, for which the z-score was -0.621.

Take `CCOC(=O)N1CCC(NC(=O)c2cc3c(-c4ccccc4F)nn(C)c3s2)CC1`: the z-score was -0.527. The same measure for `COc1ccc(-c2c3c(nc4sc(C(=O)Nc5ccccc5)c(N)c24)CCC3)cc1`: -0.28; for `C=CCn1c(CSCc2ccc(C)cc2)nnc1SCC(=O)NCc1ccccc1`: -0.519; for `CC(=O)NCCCc1nc2ccccc2n1Cc1ccc(C)cc1`: -0.0965.

Take `Cn1cccc1/C=N/NC(=O)c1ccn[nH]1`: the z-score is -0.0257. The figure for `CCOC(=O)c1ccc(N2C(=O)CC(N3CCN(C/C=C/c4ccccc4)CC3)C2=O)cc1` (stereo unspecified) is 0.337; for `O=C(Cn1cc(C(=O)C2CC2)c2ccccc21)NCc1ccccc1` it is -1.52; for `O=C1N(Nc2ccccc2)C(c2ccc(Br)cc2)C12CCCCC2` (stereo unspecified) it is -0.026. The same measure for `Cc1ccc(C2CC(C(F)F)n3ncc(C(=O)Nc4c(C)nn(Cc5c(F)cccc5Cl)c4C)c3N2)cc1` (stereo unspecified): 0.125.

`O=C(CN(c1cccc([N+](=O)[O-])c1)S(=O)(=O)c1ccccc1)N(Cc1ccccc1)Cc1ccccc1` gave a z-score of -0.215. The figure for `CCC(C)NC(=O)CCCc1ccccc1` (stereo unspecified) is -0.125; for `COc1ccc2c(c1)C(C1C(=O)CCCC1=O)c1ccccc1O2` (stereo unspecified) it is -0.324.

`CCN(CC)S(=O)(=O)c1cc(NS(=O)(=O)c2ccccc2)ccc1C` returned a z-score of 0.181. The same measure for `CC(=O)Nc1nc(N)n(-c2ccccc2)n1`: -1.76; for `O=C(Nc1ccc(F)cc1)NC1CCN(Cc2nnnn2Cc2ccco2)CC1`: -0.181.

As for `O=C1C(=C2CCCCC2)SC(=S)N1Cc1ccco1`, the z-score was 0.0279.

For the compound `CN(C)c1ccc(C(=O)Nc2ccc(S(=O)(=O)NC3=NCCCCC3)cc2)cc1`, the z-score amounted to 0.279. The same measure for `Cc1cc(N2CCN(c3cccc(C)c3C)CC2)nc(-c2ccccc2)n1`: -0.272; for `COc1cccc(Cn2nnc3c(=O)[nH]c(C4CCCN(C(=O)c5ccccc5Cl)C4)nc32)c1` (stereo unspecified): -2.56; for `Cc1cc(N/C(=N\S(=O)(=O)c2ccc(F)cc2F)c2ccccc2)no1`: 0.0702. The figure for `Cc1cccc(N2CCN(C3=NC(=O)C(Cc4ccccc4)S3)CC2)c1` (stereo unspecified) is -0.299; for `CC(C)C[C@H](NC(=O)NC(C)C)C(=O)O` it is 0.617; for `CC1CC(C)CN(C(=O)Cn2c(-c3nonc3N)nc3ccccc32)C1` (stereo unspecified) it is 0.882.

In turn, `Cc1ccccc1-c1nnc(SCC(=O)Nc2ccc(Cl)cc2)n1N` registered a z-score of 0.6. As to `O=C(CCCCCN1C(=O)CCC1=O)Nc1ncn[nH]1`, the z-score was 0.282. The figure for `CCOc1ccc(S(=O)(=O)n2cc(-c3ccccc3)c(N)n2)cc1` is 0.107; for `O=S(=O)(C=C(c1ccccc1)c1ccccc1)c1ccccc1` it is -0.199.

In turn, `CS(=O)(=O)N(Cc1ccc(F)cc1)Cc1nc2ccccc2c(=O)[nH]1` registered a z-score of -0.126.

`CCN(CC)CC(=O)NCc1cc(-c2ccc(OC)cc2)no1` displayed a z-score of 0.153. The figure for `CCCN(CCC)C(=O)CC(c1ccccc1)c1cc(C)ccc1O` (stereo unspecified) is -0.278. On to `Cc1cc(Oc2ccccc2)nc(NCc2ccccc2)n1`, for which the z-score is -0.922.
